Measured values reported in PubChem BioAssay AID488969 (Vanderbilt High Throughput Screening Facility, 2010).
Over roughly 110,000 compounds, “z-score” has its median near -0.1; the highest 2% begin near 2. The list shows a part of the results. Active and inactive are the calls of the source.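 Rule for the calls: active = z-score in the third read window above 3 or below -3; inactive = the rest.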

molecular target: Metabotropic glutamate receptor 8 (Rattus norvegicus) (UniProt P70579); assay: mGluR8 Gi/Go-coupled signaling modulation – cell-based, rat, thallium flux, HTS, primary screen (AID 488969); details: HEK293 rat mGluR8, GIRK (G protein-gated inwardly rectifying potassium channel) thallium flux, FluoZin2; at 10 µM; stronger effect = higher value; submaximal glutamate (EC20) added with thallium
UniProt P70579, sequence (P70579 whole entry, looked up): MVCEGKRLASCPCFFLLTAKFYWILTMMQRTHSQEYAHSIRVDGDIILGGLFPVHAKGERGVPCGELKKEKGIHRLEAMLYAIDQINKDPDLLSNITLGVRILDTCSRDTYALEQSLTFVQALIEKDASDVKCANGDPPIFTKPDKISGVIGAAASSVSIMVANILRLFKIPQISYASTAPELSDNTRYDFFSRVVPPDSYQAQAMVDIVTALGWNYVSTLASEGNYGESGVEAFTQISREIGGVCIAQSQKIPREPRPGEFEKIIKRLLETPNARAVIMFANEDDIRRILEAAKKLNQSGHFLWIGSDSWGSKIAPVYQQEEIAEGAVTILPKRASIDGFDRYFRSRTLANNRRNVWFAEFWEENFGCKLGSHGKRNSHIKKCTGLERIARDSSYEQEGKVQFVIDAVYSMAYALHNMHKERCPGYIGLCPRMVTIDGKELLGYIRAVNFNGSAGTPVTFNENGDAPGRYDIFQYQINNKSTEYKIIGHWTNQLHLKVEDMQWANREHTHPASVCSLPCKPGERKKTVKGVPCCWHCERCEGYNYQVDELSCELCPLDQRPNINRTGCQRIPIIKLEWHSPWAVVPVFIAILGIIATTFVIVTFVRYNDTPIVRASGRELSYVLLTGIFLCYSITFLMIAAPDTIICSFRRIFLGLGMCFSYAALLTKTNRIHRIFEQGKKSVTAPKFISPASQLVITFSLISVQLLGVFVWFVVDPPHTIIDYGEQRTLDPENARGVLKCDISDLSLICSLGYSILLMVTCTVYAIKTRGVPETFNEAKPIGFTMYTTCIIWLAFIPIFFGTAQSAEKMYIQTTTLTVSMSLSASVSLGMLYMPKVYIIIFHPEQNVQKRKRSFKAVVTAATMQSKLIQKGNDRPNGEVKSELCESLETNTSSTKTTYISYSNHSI

| Structure (SMILES) | z-score |
| --- | --- |
| Cn1c(=O)c2[nH]c(-c3ccccc3)c(O)c2n(C)c1=O | -1.4 |
| N#Cc1c(NC(=O)c2ccccc2)sc2c1CCC2 | 0.423 |
| Cc1cccc(Cn2nnc3c2C(=O)c2ccccc2C3=O)c1 | -0.21 |
| COC(=O)c1nc(N)sc1-c1ccc(OC)cc1 | -0.163 |
| CCCNC(=O)Cn1nc(C(F)(F)F)c2c1CCCC2 | 0.279 |
| COc1ccc(CCNC(=O)Cn2cnc3c(cnn3-c3ccccc3Cl)c2=O)cc1OC | -0.325 |
| CC(=O)c1cc2c(=O)c3cc(C)ccc3oc2nc1C | 0.794 |
| Clc1ccc(OCCn2c(-c3ccco3)nc3ccccc32)cc1 | -0.643 |
| Cc1c(C(=O)NC2CCCc3ccccc32)oc2ccc(S(=O)(=O)N3CCCC3)cc12 (configuration not stated) | 0.0835 |
| COC(=O)c1c(NC(=O)CN2C(=O)NC3(CCC(C(C)(C)C)CC3)C2=O)sc2c1CCCCC2 (configuration not stated) | -0.472 |
| Cc1cc(NS(=O)(=O)c2ccc(NC(=O)C(c3ccccc3)c3ccccc3)cc2)no1 | -0.79 |
| O=C(C(=O)N1CCCc2ccccc21)c1c[nH]c2ccccc12 | 0.104 |
| COC(=O)C1=C(O)CSC1=Nc1ccccc1 | 0.0252 |
| Clc1ccc(CSc2nnc(/C=C/c3ccccc3)o2)cc1 | -0.0393 |
| Cc1nnc(SCC(=O)Nc2cc(C(F)(F)F)ccc2N2CCOCC2)o1 | -0.221 |
| C/C(CC(=O)Nc1ccc(OCc2ccccc2)cc1)=N\NC(=O)C(=O)Nc1cccc(C)c1 | 0.474 |
| COc1ccc(-n2c(Cc3ccccc3)nnc2SCc2ccc([N+](=O)[O-])cc2)cc1 | 0.392 |
| COc1ccc(C(=O)c2cnc(C(C)C)n2C)cc1 | -0.0255 |
| Cc1ccc(S(=O)(=O)N(C)c2ccc(C(=O)N3CCN(Cc4ccc5c(c4)OCO5)CC3)cc2)cc1 | -0.38 |
| COc1ccc(C(=O)c2coc3ccc(O)c(CN4CCCC4)c23)cc1 | -0.315 |
| COC(=O)c1nn(-c2ccc(OC)cc2)c(=O)cc1Oc1ccccc1 | -0.0614 |
| Cc1c(/C=N/NC(=O)c2cc(=O)[nH]c(=O)[nH]2)c2ccccn2c1C(=O)c1ccccc1 | -0.247 |

| Structure (SMILES) | z-score |
| --- | --- |
| Cc1ccc2c(c1)sc1nc(=O)n(-c3cccc(Cl)c3)c(=O)n12 | -0.033 |
| CCOC(=O)/C=C1\NC(=O)C(C)S1 (configuration not stated) | 0.527 |
| C=CCNC(=O)CCCOc1cccc(C)c1 | 0.388 |
| CCN(CC)S(=O)(=O)c1cccc(C(=O)OCC(=O)C23CC4CC(CC(C4)C2)C3)c1 | -0.152 |
| COc1ccc(-c2nnc3sc(C4CCCCC4)nn23)cc1OC | -2.24 |
| Cc1onc(-c2ccccc2)c1C(=O)N1CCC(C)CC1 | -0.358 |
| CCOC(=O)c1c(C)nc2c(c1-c1ccccc1)C(=O)CC(C)(C)C2 | -0.148 |
| CN1CCN(C(=S)Nc2cccc(Cl)c2)CC1 | -0.182 |
| CC(C)c1ccc(Nc2nnc(SC3CCOC3=O)s2)cc1 (configuration not stated) | -0.374 |
| N#Cc1cnc2sc3ccccc3n2c1=N | -0.456 |
| CC(C)(C)c1ccc(S(=O)(=O)NCc2ccc(C(=O)N3CCCC3)cc2)cc1 | -0.745 |
| Cc1c(/C=N/NC(=O)C2(O)c3ccccc3-c3ccccc32)cnn1C | -0.299 |
| O=C(Nc1ccc(S(=O)(=O)N2CCCC2)cc1)N1c2ccccc2Sc2ccccc21 | 0.0176 |
| O=C(O)CCNS(=O)(=O)c1ccc2ccccc2c1 | -0.194 |
| CCOC(=O)CNC(=O)CSc1nnc(COc2ccc(Cl)cc2)n1CC | 1.3 |
| Cc1onc(-c2c(Cl)cccc2Cl)c1C(=O)NCC1CCCO1 (configuration not stated) | -0.141 |
| COc1ccc(C(=O)N2CCC(C(=O)Nc3ccccc3OC)CC2)cc1 | -0.453 |
| COC(=O)C1=C(C(=O)OC)SC2(S1)C(C(=O)OC)=C(C(=O)OC)SC1=C2c2cc(C)ccc2NC1(C)C | -0.0965 |
| Cc1ccc(S(=O)(=O)Cc2ccc(C(=O)NCc3cccs3)o2)cc1 | -0.101 |
| N#Cc1c(N)n(CCc2ccc(F)cc2)c2nc3ccccc3nc12 | -0.183 |
| COc1cc(C=O)ccc1Oc1nnnn1-c1ccc(C(N)=O)cc1 | -0.291 |
| COc1ccc(-c2nc(N)n(C(C)=O)n2)cc1 | 0.0652 |

| Structure (SMILES) | z-score |
| --- | --- |
| COc1ccc(C2=NN(c3nc(-c4ccccc4)c(CC(=O)O)s3)C(c3ccco3)C2)cc1 (configuration not stated) | -0.389 |
| Cc1ccc(CNC(=O)CCCn2c(=O)c3ccccc3n(CC(=O)NCc3ccco3)c2=O)cc1 | -0.356 |
| Clc1ccc(Cc2noc(Cc3ccccc3)n2)cc1Cl | -0.0172 |
| CSc1ccccc1C(=O)NCCc1ccc(S(=O)(=O)N2CCCCC2)cc1 | -0.295 |
| O=C(NCc1nnc(SCC(=O)N2CCCc3ccccc32)n1-c1ccccc1)c1cccc2ccccc12 | -0.913 |
| Cc1ccc(-c2nnn(CC(=O)N(c3ccccc3F)C(CC(C)C)C(=O)NCC3CCCO3)n2)cc1 (configuration not stated) | -0.197 |
| COc1ccc(N(C2CSC2)S(=O)(=O)c2ccccc2)cc1 | -0.377 |
| O=C(CSc1ccc2nnc(-c3ccncc3)n2n1)Nc1ccc2c(c1)OCO2 | -0.35 |
| COc1ccccc1NC(=O)Cc1c(F)cccc1Cl | -0.193 |
| COc1ccc(C(=O)C(CCCCC(CN(C)C)C(=O)c2ccc(OC)cc2)CN(C)C)cc1 (configuration not stated) | -0.494 |
| CCOC(=O)NC1(Nc2cccc(Cl)c2)Oc2ccccc2O1 | -0.0561 |
| O=C(CCCCl)NC1=NN(c2ccccc2)C(=O)C1 | -2.01 |
| CCC1Oc2ccc(C)cc2N(CC(=O)N(Cc2cccnc2)Cc2ccc(C)o2)C1=O (configuration not stated) | -0.536 |
| CC1CC1C(=O)Nc1nc(-c2cccs2)c(-c2cccs2)s1 (configuration not stated) | -0.316 |
| CCCCNC(=O)CS(=O)Cc1nc(-c2ccc(C)cc2)oc1C (configuration not stated) | -0.0553 |
| CN(C)S(=O)(=O)c1ccc(NC(=O)c2ccccn2)cc1 | -0.247 |
| O=C(CCN1CCOCC1)c1ccccc1 | -0.0719 |
| CCOC(=O)c1cccc(NC(=O)/C=C/c2ccc([N+](=O)[O-])cc2)c1 | -0.23 |
| OCCN(Cc1ccccc1)Cc1ccc(C(F)(F)F)cc1 | -0.0102 |
| CC(C)c1nc(SCC(=O)Nc2nc3c(s2)CCCC3)c2ccccc2n1 | -0.486 |
| CCCOc1ccc(NC(=O)C2CC(=O)N3CCCN=C3S2)cc1 (configuration not stated) | 0.626 |
| Cc1c(NC(=O)CSc2nc3ccccc3n2C)c(=O)n(-c2ccccc2)n1C | 0.0394 |

| Structure (SMILES) | z-score |
| --- | --- |
| O=C(Cn1ccc([N+](=O)[O-])n1)N1CCCc2ccccc21 | -0.0417 |
| CCOc1cc(C(=O)N/N=C/C(Br)=C/c2ccccc2)cc(OCC)c1OCC | 0.209 |
| O=C(CSc1nc2cc3c(cc2c(=O)n1CCC1=CCCCC1)OCO3)NCc1ccco1 | 0.355 |
| CN1CCN(C(=O)C2CCC(CNS(=O)(=O)c3cccc4cccnc34)CC2)CC1 (configuration not stated) | -0.297 |
| COC(=O)c1ccc(NC(=O)C(=O)N2CCN(C(=S)Nc3ccccc3OC)CC2)cc1 | -0.0921 |
| CCNC(=O)N1C(CC(=O)OCC)C(=O)NC2CCCCC21 (configuration not stated) | 0.146 |
| O=C(c1cccc([N+](=O)[O-])c1)N1CCN(c2ccc(Cl)cc2)CC1 | -0.216 |
| CC(=O)Nc1ccc(NC(=O)C(F)(F)F)cc1 | 0.364 |
| O=C(O)C1CCN(c2c([N+](=O)[O-])cc(C(F)(F)F)cc2[N+](=O)[O-])CC1 | -0.189 |
| CC(Oc1ccc2ccccc2c1)C(=O)NNC(=S)NC(=O)c1ccco1 (configuration not stated) | active: 4.46 |
| CCc1sc(N2C(=O)C3C4CCC(C4=C(C)C)C3C2=O)nc1-c1ccccc1 (configuration not stated) | -0.175 |
| Cc1sc2nc(-c3ccco3)oc(=O)c2c1C | 0.104 |
| CCc1ccc(NC(=S)NNC(=O)c2ccccc2OC(F)F)cc1 | active: 3.63 |
| COC(=O)c1ccccc1NC(=O)C12CC3CC(C1)CC(n1cnc(Cl)n1)(C3)C2 | -0.579 |
| CC(C)c1nnc(NC(=O)c2ccc(N3C(=O)CCC3=O)cc2)s1 | -0.263 |
| O=C1CCC([N+](=O)[O-])C(c2cccc(Cl)c2Cl)N1 (configuration not stated) | -0.113 |
| O=C(COn1nnc2ccc(C(F)(F)F)cc21)Nc1nnc(-c2ccccc2)o1 | 0.188 |
| COc1ccc(-c2nnc(SCc3nnc(-c4ccc(Cl)cc4)o3)n2-c2ccccc2)cc1 | -1.79 |
| Cc1ccc(/C=N/n2c(C3CCCCC3)n[nH]c2=S)o1 | 0.327 |
| COc1ccc(C2CC(=O)C3=C(C2)Nc2ncnn2C3c2ccccc2)cc1 (configuration not stated) | 0.0353 |
| O=C(CSc1ccc(-c2ccccc2)nn1)N1CCCc2ccccc21 | -0.317 |
| Cc1ccc(/C=N/NC(=O)c2nn(C)cc2Cl)cc1 | -1.63 |

| Structure (SMILES) | z-score |
| --- | --- |
| COC(=O)c1ccc(/C=N/OCC(=O)NC2CCCC(C)C2C)cc1 (configuration not stated) | -0.102 |
| CS(=O)(=O)N(CC(=O)N1CCN(c2ccc(F)cc2)CC1)c1cccc(Cl)c1 | -0.0748 |
| CCN(CC)CCn1c(OC)cc(=O)[nH]c1=O | 0.169 |
| CNc1nc(C)cc(C)c1S(=O)(=O)c1ccc(Cl)cc1 | -0.176 |
| Clc1cccc2sc(-c3nnc(-c4ccccc4)o3)c(Cl)c12 | -0.173 |
| Cc1noc(C)c1S(=O)(=O)Nc1ccc(C(=O)N2CCN(c3cccc(Cl)c3)CC2)cc1 | -0.105 |
| O=c1c([N+](=O)[O-])c(N2CCCCC2)c2ccccc2n1-c1ccccc1 | -0.0405 |
| CCOC(=O)c1cc(CC)sc1NC(=O)CSc1nc2ccccc2c(=O)n1Cc1ccco1 | 0.657 |
| CC(C)COP(=O)(c1ccc(N(C)C)cc1)C(O)c1ccccn1 (configuration not stated) | 0.147 |
| CCNc1nc(N2CCCCC2)nc(-n2nnc(C(=O)OCC)c2C)n1 | -1.93 |
| c1ccc(Cc2ccc(OCCn3cncn3)cc2)cc1 | 0.501 |
| CC(=O)Nc1cc(NC(C)=O)c2nc(N)sc2c1 | 0.158 |
| C=CCn1c(N)cc(=O)nc1SCC(=O)N1CCN(c2ccc(F)cc2)CC1 | 1.01 |
| Cc1csc(NC(=O)C2CCCN(S(=O)(=O)c3ccc4c(c3)oc(=O)n4C)C2)n1 (configuration not stated) | -0.00309 |
| O=C(OCCN1C(=O)c2cccc3c(N4CCOCC4)ccc(c23)C1=O)c1cc(Cl)cc(Cl)c1 | active: 5.23 |
| CCOc1ccc(Br)cc1S(=O)(=O)N1CC(C)OC(C)C1 (configuration not stated) | -0.977 |
| CCOC(=O)N1CCN(C(=O)c2n[nH]c(=O)c3ccccc23)CC1 | 0.307 |
| CCOC(=O)/C=c1\s/c(=C\c2ccc3cc(OC)ccc3c2)c(=O)n1CC(=O)NCC1CCCO1 (configuration not stated) | 0.466 |
| Cc1ccc(S(=O)(=O)N(CCC#N)CCN2CCCC2)cc1 | -0.604 |
